The other results are listed elsewhere or left out.
Experiments:
Test in all cases: glycan array binding signal (z-score within array); higher = stronger binding
Conditions in all cases: glycan notation: IUPAC condensed, linker removed
[1] = target: Fuc(a1-3)GlcNAc
How it was run: (§1)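 Negative Z-scores can be read as non-binding. The Z-score is calculated within each array and then averaged across arrays of one protein sequence at different concentrations or buffers and across linkers. Arrays, 3228 in all, were curated from the Consortium for Functional Glycomics database and kept only where the protein sequence was available.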

[2] = target: Fuc(a1-3)[Gal(b1-4)]Glc6S
How it was run: as §1

[3] = target: Fuc(a1-3)[Gal(b1-4)]GlcNAc
How it was run: as §1

[4] = target: Fuc(a1-3)[Gal(b1-4)]GlcNAc(b1-2)Man
How it was run: as §1

[5] = target: Fuc(a1-3)[Gal(b1-4)]GlcNAc(b1-2)Man(a1-3)[Fuc(a1-3)[Gal(b1-4)]GlcNAc(b1-2)Man(a1-6)]Man(b1-4)GlcNAc(b1-4)GlcNAc
How it was run: as §1

[6] = target: Fuc(a1-3)[Gal(b1-4)]GlcNAc(b1-2)Man(a1-3)[Fuc(a1-3)[Gal(b1-4)]GlcNAc(b1-2)Man(a1-6)]Man(b1-4)GlcNAc(b1-4)[Fuc(a1-6)]GlcNAc
How it was run: as §1

[7] = target: Fuc(a1-3)[Gal(b1-4)]GlcNAc(b1-3)Gal(b1-3)[Fuc(a1-4)]GlcNAc
How it was run: as §1

[8] = target: Fuc(a1-3)[Gal(b1-4)]GlcNAc(b1-3)Gal(b1-4)[Fuc(a1-3)]GlcNAc
How it was run: as §1

[9] = target: Fuc(a1-3)[Gal(b1-4)]GlcNAc(b1-3)Gal(b1-4)[Fuc(a1-3)]GlcNAc(b1-3)Gal(b1-4)[Fuc(a1-3)]GlcNAc
How it was run: as §1

[10] = target: Fuc(a1-3)[Gal(b1-4)]GlcNAc(b1-3)GalNAc
How it was run: as §1

[11] = target: Fuc(a1-3)[Gal(b1-4)]GlcNAc(b1-6)GalNAc
How it was run: as §1

[12] = target: Fuc(a1-3)[Gal(b1-4)]GlcNAc(b1-6)[Gal(b1-3)GlcNAc(b1-3)]Gal(b1-4)Glc
How it was run: as §1

[13] = target: Fuc(a1-3)[Gal(b1-4)]GlcNAc6S
How it was run: as §1

[14] = target: Fuc(a1-3)[Gal3S(b1-4)]Glc
How it was run: as §1

[15] = target: Fuc(a1-3)[Gal3S(b1-4)]GlcNAc
How it was run: as §1

[16] = target: Fuc(a1-3)[Gal3S(b1-4)]GlcNAc6S
How it was run: as §1

[17] = target: Fuc(a1-3)[GalNAc(b1-4)]GlcNAc
How it was run: as §1

[18] = target: Fuc(a1-3)[GalNAc(b1-4)]GlcNAc6S
How it was run: as §1

[19] = target: Fuc(a1-4)GlcNAc
How it was run: as §1

[20] = target: Fuc(b1-3)GlcNAc
How it was run: as §1

[21] = target: Gal(a1-2)Gal
How it was run: as §1

[22] = target: Gal(a1-3)Gal
How it was run: as §1

[23] = target: Gal(a1-3)Gal(b1-3)GlcNAc
How it was run: as §1

[24] = target: Gal(a1-3)Gal(b1-3)GlcNAc(b1-2)Man
How it was run: as §1

[25] = target: Gal(a1-3)Gal(b1-3)GlcNAc(b1-2)Man(a1-3)[Gal(a1-3)Gal(b1-3)GlcNAc(b1-2)Man(a1-6)]Man(b1-4)GlcNAc(b1-4)GlcNAc
How it was run: as §1

[26] = target: Gal(a1-3)Gal(b1-3)GlcNAc(b1-3)GalNAc
How it was run: as §1

[27] = target: Gal(a1-3)Gal(b1-3)GlcNAc(b1-6)GalNAc
How it was run: as §1

[28] = target: Gal(a1-3)Gal(b1-3)[Fuc(a1-4)]GlcNAc(b1-2)Man(a1-3)[Gal(a1-3)Gal(b1-3)[Fuc(a1-4)]GlcNAc(b1-2)Man(a1-6)]Man(b1-4)GlcNAc(b1-4)GlcNAc
How it was run: as §1

[29] = target: Gal(a1-3)Gal(b1-4)Glc
How it was run: as §1

[30] = target: Gal(a1-3)Gal(b1-4)GlcNAc
How it was run: as §1

[31] = target: Gal(a1-3)Gal(b1-4)GlcNAc(b1-2)Man
How it was run: as §1

[32] = target: Gal(a1-3)Gal(b1-4)GlcNAc(b1-2)Man(a1-3)[Gal(a1-3)Gal(b1-4)GlcNAc(b1-2)Man(a1-6)]Man(b1-4)GlcNAc(b1-4)GlcNAc
How it was run: as §1

[33] = target: Gal(a1-3)Gal(b1-4)GlcNAc(b1-3)GalNAc
How it was run: as §1

[34] = target: Gal(a1-3)Gal(b1-4)GlcNAc(b1-6)GalNAc
How it was run: as §1

[35] = target: Gal(a1-3)Gal(b1-4)[Fuc(a1-3)]GlcNAc
How it was run: as §1

[36] = target: Gal(a1-3)Gal(b1-4)[Fuc(a1-3)]GlcNAc(b1-2)Man(a1-3)[Gal(a1-3)Gal(b1-4)[Fuc(a1-3)]GlcNAc(b1-2)Man(a1-6)]Man(b1-4)GlcNAc(b1-4)GlcNAc
How it was run: as §1

[37] = target: Gal(a1-3)GalNAc
How it was run: as §1

[38] = target: Gal(a1-3)[Gal(a1-4)]Gal(b1-4)GlcNAc
How it was run: as §1

[39] = target: Gal(a1-4)Gal(b1-3)GlcNAc(b1-2)Man(a1-3)[Gal(a1-4)Gal(b1-3)GlcNAc(b1-2)Man(a1-6)]Man(b1-4)GlcNAc(b1-4)GlcNAc
How it was run: as §1

[40] = target: Gal(a1-4)Gal(b1-4)Glc
How it was run: as §1

[41] = target: Gal(a1-4)Gal(b1-4)GlcNAc
How it was run: as §1

[42] = target: Gal(a1-4)Gal(b1-4)GlcNAc(b1-2)Man(a1-3)[Gal(a1-4)Gal(b1-4)GlcNAc(b1-2)Man(a1-6)]Man(b1-4)GlcNAc(b1-4)GlcNAc
How it was run: as §1

[43] = target: Gal(a1-4)Gal(b1-4)GlcNAc(b1-3)Gal(b1-4)Glc
How it was run: as §1

[44] = target: Gal(a1-4)GlcNAc
How it was run: as §1

[45] = target: Gal(a1-6)Glc
How it was run: as §1

B1: HPL (Tachypleus tridentatus) (protein)
chain: MEDDCTCVTDRSLEGKLMKHPSTPAVYQILDGCRRLVPNPPTYNNIYKNWECIQSNILEKLLCKCDSLSNGAELIKGSGDTVYLLSNGVKRPIADPETFNGFCFDWNKIKTYSDIVINSLSTGPIIIIKHHHHHH
[1]
  glycan array binding signal (z-score): -0.222
[2]
  glycan array binding signal (z-score): 0.371
[3]
  glycan array binding signal (z-score): -0.275
[4]
  glycan array binding signal (z-score): 0.561
[5]
  glycan array binding signal (z-score): 0.36
[6]
  glycan array binding signal (z-score): 0.24
[7]
  glycan array binding signal (z-score): 0.049
[8]
  glycan array binding signal (z-score): 0.239
[9]
  glycan array binding signal (z-score): -0.146
[10]
  glycan array binding signal (z-score): -0.296
[11]
  glycan array binding signal (z-score): 0.111
[12]
  glycan array binding signal (z-score): -0.178
[13]
  glycan array binding signal (z-score): -0.504
[14]
  glycan array binding signal (z-score): 0.161
[15]
  glycan array binding signal (z-score): -0.327
[16]
  glycan array binding signal (z-score): -0.166
[17]
  glycan array binding signal (z-score): 0.037
[18]
  glycan array binding signal (z-score): -0.358
[19]
  glycan array binding signal (z-score): -0.348
[20]
  glycan array binding signal (z-score): -0.219
[21]
  glycan array binding signal (z-score): 0.509
[22]
  glycan array binding signal (z-score): -0.159
[23]
  glycan array binding signal (z-score): -0.108
[24]
  glycan array binding signal (z-score): -0.349
[25]
  glycan array binding signal (z-score): 3.2
[26]
  glycan array binding signal (z-score): -0.24
[27]
  glycan array binding signal (z-score): -0.354
[28]
  glycan array binding signal (z-score): 2.31
[29]
  glycan array binding signal (z-score): 0.05
[30]
  glycan array binding signal (z-score): -0.338
[31]
  glycan array binding signal (z-score): -0.198
[32]
  glycan array binding signal (z-score): 0.167
[33]
  glycan array binding signal (z-score): -0.364
[34]
  glycan array binding signal (z-score): -0.113
[35]
  glycan array binding signal (z-score): -0.287
[36]
  glycan array binding signal (z-score): 0.1
[37]
  glycan array binding signal (z-score): -0.077
[38]
  glycan array binding signal (z-score): -0.374
[39]
  glycan array binding signal (z-score): 0.276
[40]
  glycan array binding signal (z-score): 0.888
[41]
  glycan array binding signal (z-score): -0.165
[42]
  glycan array binding signal (z-score): 0.039
[43]
  glycan array binding signal (z-score): -0.094
[44]
  glycan array binding signal (z-score): -0.181
[45]
  glycan array binding signal (z-score): 1.55

Source: the supplement of paper PMC8728848
